Experimental findings from US20240043559A1 (SHANGHAI HENLIUS BIOTECH, published 2024) are described below.

For the experiment, the target named is T1, human C-terminal ECD of GPC3 (human, UniProt P51654 359-554).
T1 construct: Bought protein (LSBIO # LS-G13157-10); also called human GPC3 C-terminal domain; GPC3 C-terminal (LSBIO # LS-G13157-10)
T1 sequence: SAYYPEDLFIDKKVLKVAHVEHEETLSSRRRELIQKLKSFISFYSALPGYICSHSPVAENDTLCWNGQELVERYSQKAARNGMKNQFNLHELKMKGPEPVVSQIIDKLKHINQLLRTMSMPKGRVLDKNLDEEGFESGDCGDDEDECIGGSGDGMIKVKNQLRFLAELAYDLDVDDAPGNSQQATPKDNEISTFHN
Kind of experiment: ELISA on plate-coated human GPC3 C-terminal domain.

B1: humanized 1B01 VHH-Fc (Fc fusion)
chain: QVQLVESGGGLVQPGGSLRLSCAAVGLPFSNYAMGWFRQAPGKGLEFVSAVSANGGNEYYADSVKGRFTISRDNSKNTLYLQMNSLRAEDTAVYYCATVRRRGGTFTVGSYRGQGTQVTVSS[human IgG1 Fc not shown]
notes: also called anti-GPC3 antibody 1B01
In the case of B1, the binding result is listed as “binds”.

B2: afucosylated (AF) 1B01 VHH-Fc (Fc fusion)
chain: B1 chain
modifications: afucosylated (AF) Fc glycan
notes: also called 1B01 VHH-Fc AF; afycosylated (AF) 1B01 VHH-Fc
In the case of B2, the binding result was “binds”.
